Consider eleven compounds from the antibiotic and cytotoxicity screens of Wong et al. (2023).

This is one part of the list.

Assay [1] has as its system HSkMC (human skeletal muscle cells). Briefly: cytotoxicity call (relative viability < 0.9). The conditions noted are these: 10 µM.
The test system of assay [2] is HepG2. Briefly: cytotoxicity call (relative viability < 0.9). The conditions noted are these: 10 µM.
Assay [3] concerns S. aureus RN4220. Briefly: growth inhibition call (relative growth <= 0.2). The conditions noted are these: 50 µM.

Turning to `C[C@@H]1CN([C@@H](C)CO)C(=O)c2cc(NS(=O)(=O)c3cn(C)cn3)ccc2O[C@H]1CN(C)C(=O)Nc1ccccc1`, the cytotoxicity call in assay [1] and in assay [2] was “inactive” in each case. For the same compound, the growth inhibition call in assay [3] was “inactive”.
As to `CC(C)(S)C(N)C(=O)O.NCCO` (stereo not drawn), the cytotoxicity call in assay [1] and in assay [2] was “inactive” each time. For the same compound, in assay [3], the growth inhibition call is “inactive”.
As to `COc1ccc(S(=O)(=O)N(C)C[C@@H]2OCCCC[C@H](C)Oc3ccc(NC(=O)Nc4c(C)noc4C)cc3C(=O)N([C@@H](C)CO)C[C@@H]2C)cc1`, the cytotoxicity call in assay [1] and in assay [2] was “inactive” throughout. In assay [3], the growth inhibition call is “inactive”.
Consider `C[C@@H]1CCCCO[C@@H](CN(C)CC2CCCCC2)[C@@H](C)CN([C@H](C)CO)C(=O)c2cc(NS(=O)(=O)c3cccs3)ccc2O1`, for which the cytotoxicity call in assay [1] and in assay [2] was “inactive” in each case. Also, the growth inhibition call in assay [3] was “inactive”.
On to `COC(=O)C(Cc1ccccc1)NC(=O)C(N)CC(=O)O` (stereo not drawn), for which the cytotoxicity call in assay [1] and in assay [2] was “inactive” in each case. For the same compound, the growth inhibition call in assay [3] was “inactive”.
Regarding `COc1ccc([C@H](O)[C@H](CCO)OC)cc1O`, the cytotoxicity call in assay [1] and in assay [2] was “inactive” each time. For the same compound, the growth inhibition call in assay [3] is “inactive”.
With `CCOC(=O)/C(=N/O)C1=NNC(=N)SC1`, the cytotoxicity call in assay [1] and in assay [2] was “inactive” in each case. The growth inhibition call in assay [3] is “inactive”.
Regarding `Cc1cn(-c2cc(NC(=O)c3ccc(C)c(Nc4nccc(-c5cnccn5)n4)c3)cc(C(F)(F)F)c2)cn1`, the cytotoxicity call in assay [1] is “active”. In addition, in assay [2], the cytotoxicity call was “inactive”. Moreover, in assay [3], the growth inhibition call is “inactive”.
Take `C[C@H](CO)N1C[C@H](C)[C@@H](CN(C)Cc2ccc(-c3ccccc3)cc2)Oc2c(NC(=O)c3nc4ccccc4s3)cccc2C1=O`: the cytotoxicity call in assay [1] and in assay [2] was “inactive” in each case. In assay [3], the growth inhibition call was “inactive”.
For the compound `C[C@@H]1CCCCO[C@@H](CN(C)S(=O)(=O)c2ccc(F)cc2)[C@H](C)CN([C@H](C)CO)C(=O)c2cc(NS(C)(=O)=O)ccc2O1`, the cytotoxicity call in assay [1] and in assay [2] was “inactive” in each case. Further, the growth inhibition call in assay [3] was “inactive”.
With `C[C@@H]1CN([C@@H](C)CO)C(=O)c2c(c3ccccc3n2C)-c2ccccc2CO[C@H]1CN(C)C(=O)Nc1cccc(Cl)c1Cl`, the cytotoxicity call in assay [1] and in assay [2] was “inactive” throughout. In addition, in assay [3], the growth inhibition call is “inactive”.
